# This is one part of the list.
# Key:
# Assay in all cases: glycan array binding signal (z-score within array); higher = stronger binding
# Details in all cases: glycan notation: IUPAC condensed, linker removed
# Fuc(a1-2)Gal = biological target: Fuc(a1-2)Gal
# Outline: (§1)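 From the Consortium for Functional Glycomics database, 3228 arrays were curated, keeping only those whose protein sequence was available. Binding is given as a within-array Z-score averaged across arrays sharing a protein sequence and across linkers. Negative Z-scores can be read as non-binding.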
# Fuc(a1-2)Gal(b1-3)GalNAc = biological target: Fuc(a1-2)Gal(b1-3)GalNAc
# Outline: as §1
# [1] = biological target: Fuc(a1-2)Gal(b1-3)GalNAc(b1-3)Gal
# Outline: as §1
# [2] = biological target: Fuc(a1-2)Gal(b1-3)GalNAc(b1-3)Gal(a1-4)Gal(b1-4)Glc
# Outline: as §1
# [3] = biological target: Fuc(a1-2)Gal(b1-3)GalNAc(b1-3)Gal(b1-4)Glc
# Outline: as §1
# [4] = biological target: Fuc(a1-2)Gal(b1-3)GalNAc(b1-4)[Neu5Ac(a2-3)]Gal(b1-4)Glc
# Outline: as §1
# [5] = biological target: Fuc(a1-2)Gal(b1-3)[Fuc(a1-4)]GlcNAc
# Outline: as §1
# Fuc(a1-2)Gal(b1-4)Glc = biological target: Fuc(a1-2)Gal(b1-4)Glc
# Outline: as §1
# Fuc(a1-2)Gal(b1-4)Glc6S = biological target: Fuc(a1-2)Gal(b1-4)Glc6S
# Outline: as §1
# Fuc(a1-2)Gal(b1-4)GlcNAc = biological target: Fuc(a1-2)Gal(b1-4)GlcNAc
# Outline: as §1
# [6] = biological target: Fuc(a1-2)Gal(b1-4)GlcNAc(b1-3)Gal(b1-4)GlcNAc
# Outline: as §1
# [7] = biological target: Fuc(a1-2)Gal(b1-4)GlcNAc(b1-3)Gal(b1-4)GlcNAc(b1-3)Gal(b1-4)GlcNAc
# Outline: as §1
# [8] = biological target: Fuc(a1-2)Gal(b1-4)GlcNAc6S
# Outline: as §1
# [9] = biological target: Fuc(a1-2)Gal(b1-4)[Fuc(a1-3)]GalNAc(b1-3)Gal(b1-4)[Fuc(a1-3)]GlcNAc
# Outline: as §1
# [10] = biological target: Fuc(a1-2)Gal(b1-4)[Fuc(a1-3)]GalNAc(b1-3)Gal(b1-4)[Fuc(a1-3)]GlcNAc(b1-3)Gal(b1-4)[Fuc(a1-3)]GalNAc
# Outline: as §1
# [11] = biological target: Fuc(a1-2)Gal(b1-4)[Fuc(a1-3)]GlcNAc
# Outline: as §1
# Fuc(a1-2)Gal6S(b1-4)Glc = biological target: Fuc(a1-2)Gal6S(b1-4)Glc
# Outline: as §1
# [12] = biological target: Fuc(a1-2)Gal6S(b1-4)Glc6S
# Outline: as §1
# [13] = biological target: Fuc(a1-2)Gal6S(b1-4)GlcNAc
# Outline: as §1
# Fuc(a1-2)GlcNAc = biological target: Fuc(a1-2)GlcNAc
# Outline: as §1
# Fuc(a1-2)[Gal(a1-3)]Gal = biological target: Fuc(a1-2)[Gal(a1-3)]Gal
# Outline: as §1
# [14] = biological target: Fuc(a1-2)[Gal(a1-3)]Gal(b1-3)GlcNAc
# Outline: as §1
# [15] = biological target: Fuc(a1-2)[Gal(a1-3)]Gal(b1-4)Glc
# Outline: as §1
# [16] = biological target: Fuc(a1-2)[Gal(a1-3)]Gal(b1-4)GlcNAc
# Outline: as §1
# [17] = biological target: Fuc(a1-2)[Gal(a1-3)]Gal(b1-4)[Fuc(a1-3)]GlcNAc
# Outline: as §1
# [18] = biological target: Fuc(a1-2)[Gal(a1-4)]Gal(b1-4)GalNAc
# Outline: as §1
# [19] = biological target: Fuc(a1-2)[GalNAc(a1-3)]Gal
# Outline: as §1
# [20] = biological target: Fuc(a1-2)[GalNAc(a1-3)]Gal(b1-3)GlcNAc
# Outline: as §1
# [21] = biological target: Fuc(a1-2)[GalNAc(a1-3)]Gal(b1-4)Glc
# Outline: as §1
# [22] = biological target: Fuc(a1-2)[GalNAc(a1-3)]Gal(b1-4)GlcNAc
# Outline: as §1
# [23] = biological target: Fuc(a1-2)[GalNAc(a1-3)]Gal(b1-4)[Fuc(a1-3)]GlcNAc
# Outline: as §1
# [24] = biological target: Fuc(a1-2)[GalNAc(a1-4)]Gal(b1-4)GlcNAc
# Outline: as §1
# Fuc(a1-3)GlcNAc = biological target: Fuc(a1-3)GlcNAc
# Outline: as §1
# [25] = biological target: Fuc(a1-3)[Gal(b1-4)]Glc6S
# Outline: as §1
# [26] = biological target: Fuc(a1-3)[Gal(b1-4)]GlcNAc
# Outline: as §1
# [27] = biological target: Fuc(a1-3)[Gal(b1-4)]GlcNAc(b1-3)Gal(b1-3)[Fuc(a1-4)]GlcNAc
# Outline: as §1
# [28] = biological target: Fuc(a1-3)[Gal(b1-4)]GlcNAc(b1-4)Gal(b1-4)[Fuc(a1-3)]GlcNAc
# Outline: as §1
# [29] = biological target: Fuc(a1-3)[Gal(b1-4)]GlcNAc(b1-4)Gal(b1-4)[Fuc(a1-3)]GlcNAc(b1-4)Gal(b1-4)[Fuc(a1-3)]GlcNAc
# Outline: as §1
# [30] = biological target: Fuc(a1-3)[Gal(b1-4)]GlcNAc6S
# Outline: as §1
# [31] = biological target: Fuc(a1-3)[Gal3S(b1-4)]Glc
# Outline: as §1
# [32] = biological target: Fuc(a1-3)[Gal3S(b1-4)]Glc6S
# Outline: as §1
# [33] = biological target: Fuc(a1-3)[Gal3S(b1-4)]GlcNAc
# Outline: as §1
# [34] = biological target: Fuc(a1-3)[Gal3S(b1-4)]GlcNAc6S
# Outline: as §1
# [35] = biological target: Fuc(a1-3)[GalNAc(b1-4)]Gal(b1-4)GlcNAc
# Outline: as §1
# Fuc(a1-4)GlcNAc = biological target: Fuc(a1-4)GlcNAc
# Outline: as §1
# Fuc(b1-3)GlcNAc = biological target: Fuc(b1-3)GlcNAc
# Outline: as §1
# Gal(a1-2)Gal = biological target: Gal(a1-2)Gal
# Outline: as §1
# Gal(a1-3)Gal = biological target: Gal(a1-3)Gal
# Outline: as §1
# Gal(a1-3)Gal(b1-3)Glc = biological target: Gal(a1-3)Gal(b1-3)Glc
# Outline: as §1
# Gal(a1-3)Gal(b1-3)GlcNAc = biological target: Gal(a1-3)Gal(b1-3)GlcNAc
# Outline: as §1
# Gal(a1-3)Gal(b1-4)GlcNAc = biological target: Gal(a1-3)Gal(b1-4)GlcNAc
# Outline: as §1
# [36] = biological target: Gal(a1-3)Gal(b1-4)[Fuc(a1-3)]GalNAc
# Outline: as §1
# Gal(a1-3)GlcNAc = biological target: Gal(a1-3)GlcNAc
# Outline: as §1
# [37] = biological target: Gal(a1-3)[Gal(a1-4)]Gal(b1-4)GlcNAc
# Outline: as §1
# Gal(a1-4)Gal(b1-4)Gal = biological target: Gal(a1-4)Gal(b1-4)Gal
# Outline: as §1
# Gal(a1-4)Gal(b1-4)GalNAc = biological target: Gal(a1-4)Gal(b1-4)GalNAc
# Outline: as §1
# Gal(a1-4)GlcNAc = biological target: Gal(a1-4)GlcNAc
# Outline: as §1
# Gal(a1-6)Glc = biological target: Gal(a1-6)Glc
# Outline: as §1
# Gal(b1-2)Gal = biological target: Gal(b1-2)Gal
# Outline: as §1
# Gal(b1-3)Gal = biological target: Gal(b1-3)Gal
# Outline: as §1
binder,measurement,setting,value
"PEB3 Cj0289c (Campylobacter jejuni), Q9PIK7 (protein) MDVNLYGPGGPHTALKDIANKYSEKTGVKVNVNFGPQATWFEKAKKDADILFGASDQSALAIASDFGKDFNVSKIKPLYFREAIILTQKGNPLKIKGLKDLANKKVRIVVPEGAGKSNTSGTGVWEDMIGRTQDIKTIQNFRNNIVAFVPNSGSARKLFAQDQADAWITWIDWSKSNPDIGTAVAIEKDLVVYRTFNVIAKEGASKETQDFIAYLSSKEAKEIFKKYGWRE",glycan array binding signal (z-score),Fuc(a1-2)Gal,0.074
same,glycan array binding signal (z-score),Fuc(a1-2)Gal(b1-3)GalNAc,-0.259
same,glycan array binding signal (z-score),[1],1.6
same,glycan array binding signal (z-score),[2],-0.183
same,glycan array binding signal (z-score),[3],-0.406
same,glycan array binding signal (z-score),[4],-0.151
same,glycan array binding signal (z-score),[5],-0.194
same,glycan array binding signal (z-score),Fuc(a1-2)Gal(b1-4)Glc,-0.082
same,glycan array binding signal (z-score),Fuc(a1-2)Gal(b1-4)Glc6S,-0.362
same,glycan array binding signal (z-score),Fuc(a1-2)Gal(b1-4)GlcNAc,-0.301
same,glycan array binding signal (z-score),[6],-0.393
same,glycan array binding signal (z-score),[7],-0.33
same,glycan array binding signal (z-score),[8],-0.238
same,glycan array binding signal (z-score),[9],-0.127
same,glycan array binding signal (z-score),[10],-0.245
same,glycan array binding signal (z-score),[11],-0.263
same,glycan array binding signal (z-score),Fuc(a1-2)Gal6S(b1-4)Glc,-0.291
same,glycan array binding signal (z-score),[12],-0.08
same,glycan array binding signal (z-score),[13],-0.378
same,glycan array binding signal (z-score),Fuc(a1-2)GlcNAc,0.072
same,glycan array binding signal (z-score),Fuc(a1-2)[Gal(a1-3)]Gal,-0.183
same,glycan array binding signal (z-score),[14],-0.259
same,glycan array binding signal (z-score),[15],-0.313
same,glycan array binding signal (z-score),[16],-0.126
same,glycan array binding signal (z-score),[17],-0.22
same,glycan array binding signal (z-score),[18],-0.405
same,glycan array binding signal (z-score),[19],-0.154
same,glycan array binding signal (z-score),[20],-0.222
same,glycan array binding signal (z-score),[21],-0.137
same,glycan array binding signal (z-score),[22],-0.298
same,glycan array binding signal (z-score),[23],-0.226
same,glycan array binding signal (z-score),[24],0.057
same,glycan array binding signal (z-score),Fuc(a1-3)GlcNAc,-0.117
same,glycan array binding signal (z-score),[25],-0.379
same,glycan array binding signal (z-score),[26],-0.358
same,glycan array binding signal (z-score),[27],-0.4
same,glycan array binding signal (z-score),[28],-0.172
same,glycan array binding signal (z-score),[29],-0.441
same,glycan array binding signal (z-score),[30],-0.198
same,glycan array binding signal (z-score),[31],-0.401
same,glycan array binding signal (z-score),[32],0.015
same,glycan array binding signal (z-score),[33],-0.266
same,glycan array binding signal (z-score),[34],0.228
same,glycan array binding signal (z-score),[35],-0.378
same,glycan array binding signal (z-score),Fuc(a1-4)GlcNAc,-0.029
same,glycan array binding signal (z-score),Fuc(b1-3)GlcNAc,-0.111
same,glycan array binding signal (z-score),Gal(a1-2)Gal,0.096
same,glycan array binding signal (z-score),Gal(a1-3)Gal,0.313
same,glycan array binding signal (z-score),Gal(a1-3)Gal(b1-3)Glc,-0.13
same,glycan array binding signal (z-score),Gal(a1-3)Gal(b1-3)GlcNAc,-0.163
same,glycan array binding signal (z-score),Gal(a1-3)Gal(b1-4)GlcNAc,-0.269
same,glycan array binding signal (z-score),[36],-0.258
same,glycan array binding signal (z-score),Gal(a1-3)GlcNAc,-0.191
same,glycan array binding signal (z-score),[37],-0.332
same,glycan array binding signal (z-score),Gal(a1-4)Gal(b1-4)Gal,0.234
same,glycan array binding signal (z-score),Gal(a1-4)Gal(b1-4)GalNAc,-0.187
same,glycan array binding signal (z-score),Gal(a1-4)GlcNAc,-0.089
same,glycan array binding signal (z-score),Gal(a1-6)Glc,1.25
same,glycan array binding signal (z-score),Gal(b1-2)Gal,0.096
same,glycan array binding signal (z-score),Gal(b1-3)Gal,0.05

# From the supplement of paper PMC8728848
